Laboratory results taken from the supplement of paper PMC10338343.
± gives the standard deviation. Only a part is listed here, and it is no random draw.

system: MIWI (PIWIL1) piRISC loaded with L1MC piRNA (30 nt); assay: pre-steady-state target cleavage rate (min^-1); MIWI and MILI are mouse PIWI proteins and EfPiwi is from a freshwater sponge; tags in brackets are library labels; higher = faster piRNA-guided slicing of the target; settings: guide: L1MC piRNA 5'p-UAACUAAAUACUAUGCAAGCUGUAGGUCCU; auxiliary factor: 500 nM mouse GTSF1
Outline: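 Using HEPES–potassium acetate buffer at 33 °C, 1 nM active affinity-purified piRISC with a single synthetic guide was mixed with 0.1 nM transcribed, DNA-blocked target RNA library for 0–8 or 0–960 min, with or without 500 nM GTSF1 partner protein. Uncleaved targets were sequenced and normalised to depth and to weakly complementary targets, and three trials were pooled with k3 capped at 0.0001 min^-1. A burst-and-steady-state fit gave the pre-steady-state cleavage rate.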

Sequence | pre-steady-state target cleavage rate
UCGACCUACAGCUUGCAUAGUAUAAUGAAA | 0.366 ± 0.044
UCGACCUACAGCUUGCUAAGUAUUUACAAA | 0.0259 ± 0.0099
UCCUCCUACAGCUUGCAUACUAUUUUCAAA | 0.156 ± 0.035
UCCACCUACAGCUUCCAUAGUAUUAAGUUA | 0.0358 ± 0.015
UCCUGGAUGUCCUUGCAUAGUAUUUCAGUUA | 0.0207 ± 0.0071
UCCACCUACAGCUUCGAUAGUAUUUAGAAA | 0.0807 ± 0.021
UGGACCUACAGCUUGCAUAGAUUUUAGAAA | 0.0691 ± 0.023
UCCUGGUACAGCUUGACAUAGUAUUUAGUUA | 0.271 ± 0.027
UCCUGCUACAGCUUGCAUAGUUAAUUCAAA | 0.0141 ± 0.0063
UCCUGGUACAGCUUGCAUAGUUAUUAGAAA | 0.037 ± 0.014
AGGACCUACAGCUUGCAUAGUUAAUAGAAA | 0.189 ± 0.051
UCCUGGUACACGUUGCAUAGUAUUUAGUAA | 0.178 ± 0.041
UCCUGGAUCAGCUUGCAUAGUUUUUACAAA | 0.0207 ± 0.0089
UCCUGGAUGUCGUUGCAUAGUAUUUCAGUUA | 0.00991 ± 0.0042
UCCUGGUACAGCUUGCAUAGUAUUUAGCUA | 0.00692 ± 0.0039
UCCUCCUACAGCUUGCAUAGUAUUAGUUA | 0.181 ± 0.034
UCCUGGAUGUCCUUGCAUAGUAUAUACUUA | 0.00478 ± 0.0047
UCCUGGAUGUCGAACGUAAGUAAUUUAGUUA | < 0.0001
UCCUGGAACAGCUUGCAUACAAUUUAGUUA | 0.0117 ± 0.0047

Sequence | pre-steady-state target cleavage rate
UCCUCCUACAGCUUGCAUAGAAUUUUCAAA | 0.194 ± 0.039
UCCUCCUACAGGUUGCAUAGUAUUUUCAAA | 0.139 ± 0.025
UCCUCCUACAGCUUGGAUAGUAUUUUCAAA | 0.0219 ± 0.0094
UCCUCCUACAGCUUGCAUAGUAAAUAGAAA | 0.191 ± 0.04
UCCACCUACAGGUUGCAUAGUAUUUUCAAA | 0.238 ± 0.039
UCCUGGAUGUCGAAGCAUAGUAUUUAGUUA [g2:g16:cont:t1A] | 0.0133 ± 0.0028
UCCUGGAUCAGCUAGCAUAGUAUUUAGAAA | 0.136 ± 0.022
AGGACCUACAGCUUCGAUAGUAUUUAGUAA | 0.463 ± 0.057
UCCUGGAUGUCGAACGUAUCUGAUUUAGUUA | < 0.0001
UCCUGCUACAGCUUGCAUAGUAUUUGUUA | 0.247 ± 0.029
UGGACCUACAGCUUGCAUAGUAUUAACAAA | 0.225 ± 0.032
UCGACCUACAGCUUGCAUAGUAUUAUCAAA | 0.417 ± 0.065
UCCUCCUACAGCUUGCAUAGUAUUUAUUA | 0.208 ± 0.028
AGGACCUACAGCUUGCAAUCUAUUUAGAAA | 0.0144 ± 0.006
ACCUCCUACAGCUUGCAUAGUAUUUACAAA | 0.466 ± 0.052
UCCUGGAUGUCCUCUGCAUAGUAUUUAGUUA | 0.0075 ± 0.002
AGGACCUACAGCUUGCUAAGUAUUUAGAAA | 0.186 ± 0.047
UCCUGCUACAGCUUGCAUAGUUAUUAGAAA | 0.0716 ± 0.022
UCCUGGAACACGUUGCAUAGUAUUUACAAA | 0.0172 ± 0.0064
